Data reported in the supplement of paper PMC3334620.
Whole data set: some 33,000 sequences, median “E-score (-0.5 to 0.5)” near -0.036, cut for the highest 2% near 0.37. Some of the results follow.

target: T1, Yer064c (UniProt P40041); test: PBM E-score (8-mer binding enrichment) (E-score (-0.5 to 0.5)); higher = stronger / more preferred TF binding; most listed sequences are background and not binding sites; conditions: protein concentration: 200 nM; construct: GST-full length
T1 sequence: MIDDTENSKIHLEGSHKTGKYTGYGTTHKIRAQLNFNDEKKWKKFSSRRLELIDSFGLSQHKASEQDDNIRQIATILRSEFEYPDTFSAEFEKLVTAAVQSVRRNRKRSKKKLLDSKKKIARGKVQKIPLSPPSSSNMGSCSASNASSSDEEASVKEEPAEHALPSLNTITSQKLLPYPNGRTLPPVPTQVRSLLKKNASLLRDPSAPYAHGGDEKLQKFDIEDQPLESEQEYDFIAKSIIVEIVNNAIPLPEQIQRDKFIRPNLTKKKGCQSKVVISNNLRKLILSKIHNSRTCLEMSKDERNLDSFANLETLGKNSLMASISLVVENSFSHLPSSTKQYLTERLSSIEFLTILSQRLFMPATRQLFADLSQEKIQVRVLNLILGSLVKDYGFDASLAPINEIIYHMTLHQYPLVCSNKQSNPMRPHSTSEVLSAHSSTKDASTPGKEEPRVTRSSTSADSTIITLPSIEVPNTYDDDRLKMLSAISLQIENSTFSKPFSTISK
Protocol: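 Universal 'all 10-mer' protein binding microarrays (Agilent AMADID 015681) probed with GST-tagged S. cerevisiae TFs (full-length or DBD) made by in vitro transcription/translation (PURExpress), about 100-200 nM. Bound TF was detected with fluorescent anti-GST. Each ungapped 8-mer (which stands for itself and its reverse complement) is scored by the PBM enrichment score (E-score), a modified Wilcoxon-Mann-Whitney statistic from -0.5 to +0.5, computed with the Universal PBM Analysis Suite. Scale: above 0.35 generally sequence-specific binding.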

Sequence	PBM E-score
AGCTAAGC	-0.158
CAACTCCG	-0.12
AACGTAGA	-0.157
CTCTTGCC	-0.0899
ATCCGCAA	0.0373
AAACGGGC	-0.206
TCACTCAA	0.24
AAGTATGC	-0.00132
ATATTTCG	0.043
GCTTACCC	-0.176
ATGCCGTC	-0.274
GCTTAATA	-0.0966
ATGGTCTG	-0.0695
CATTCGAA	0.0908
ATTCGTTG	0.0655
GATGTAAC	-0.124
GATGGGAC	-0.082
AAATTCCG	-0.167
TGCCGGAA	-0.213
GATCCACA	0.103
GCTGTTTA	0.0015
TCACACCA	0.218
ACACTATC	0.0106
GACGACTA	0.415
AGCCGGTC	-0.159

Sequence	PBM E-score
CCTCTCCA	-0.0377
CAGAATGC	0.00391
GCCCACGC	-0.348
CGTCTTCA	-0.115
ACGGGTGA	0.0366
ACGAGTCA	0.48
AAATGTAC	-0.0779
CATAATTC	0.0347
AGTGATCC	0.12
TAAACTAA	0.195
CGAAGAAA	-0.131
CCGGGAGA	-0.0645
GTCTTAAC	0.192
CAATTTAC	-0.0386
CCCCAGTA	-0.19
ATAGGCTC	-0.167
CCAAGAGC	-0.229
CCGAAACG	-0.169
CGTAGTGC	-0.148
GATATGCC	-0.329
CGAGAACA	0.0131
CAGATAGA	0.0714
CCGAGCAA	-0.287
CCGTGGTC	-0.172
GGAAGCCA	-0.0486

Sequence	PBM E-score
CCGCACCA	0.017
AGTATAGA	0.128
AAGACAAT	-0.0159
CCTTCTAC	-0.317
AATGTACG	-0.329
ACAGTTCC	-0.0135
CGCGGCCG	-0.137
GTGCTTCA	-0.00796
CTTCTTGC	-0.185
ACGCCCCA	-0.159
ACACTGGC	0.172
CGCCAGCC	-0.276
GGGAAGCA	-0.383
CGGCGGAC	-0.166
TACAGAGA	-0.169
CGTTCCAG	-0.241
ACTTGGGG	-0.191
GCAACTGC	-0.0982
CCAGAGAA	-0.0846
AATGCCCA	-0.0865
GCCCATTA	-0.0541
ATCTCGGC	-0.00132
ACAATAAG	-0.00139
GACAAACC	-0.0461
CAAAAAAC	0.079

Sequence	PBM E-score
CTGGTATA	-0.118
TATTGCGA	0.0167
ACCGAGTA	-0.0874
TCCCGCCA	-0.196
GGCTTATA	-0.184
CTATTTAC	-0.0226
AATCACGC	0.391
ATTGGGCG	-0.166
GAGCTGAA	-0.0826
ATATATTG	-0.0832
CGAGAGAC	0.0137
CAATCCGC	-0.104
AATGCAAG	0.0671
CGTCTCAC	-0.0322
CGTAGGTC	-0.0734
TGGTAAAA	0.0782
ACTAAGAT	0.338
GCGAGTGA	0.106
AACATCAA	0.0691
ACTTCTCC	0.0225
ATAGAGGG	-0.145
ATACCTAT	-0.0579
CAAGCCTG	-0.118
ATGTTGCC	-0.203
GCGTTCAC	-0.113

Sequence	PBM E-score
ACTACAGT	0.233
AGCGGCCC	-0.314
AAATGCGT	-0.152
TCATGTAA	0.197
ATTTGTAC	0.225
CATAGACA	0.0961
GAGTCTGA	0.323
CATTCCTC	-0.0253
AAGATTAA	0.321
GAAACCTA	-0.188
GACCCTTA	-0.128
AAGCTACA	-0.0866
CATCACGC	0.0572
ATGCTTAA	-0.0286
ATTAGGTC	0.0776
AGCACTTA	-0.00499
GTTGTTCA	-0.0244
TAGTACTA	0.132
ACCGCCGG	-0.151
GAATTAAA	-0.0487
CTACGTTA	0.0321
GGTCTCAA	0.109
ATTATTAG	0.242
CCCAACAA	-0.136
CGACACAG	0.0959

Sequence	PBM E-score
AGCATGCT	-0.245
CCTAAACC	-0.123
CTAGATCC	-0.152
GTCGTCAC	0.142
ACGGTGAA	0.00671
GCCTGTGA	-0.00963
CAAACTTA	-0.0307
ATTTTGGG	0.0393
CACATACA	0.0609
CACCACGG	-0.284
GCTCTGCA	-0.221
AAGCTTAA	0.0226
GGTCGTCA	0.00372
AACTACCA	-0.104
CTAAACCC	0.0794
TTCTCAAA	0.0907
CCAGTTTC	-0.166
CACCCAGG	-0.0382
TCCAAGAA	0.0927
CCACGGAG	0.00248
AAGCTAAG	-0.218
CAGATTAC	0.173
ACGATGTA	0.0608
CAGGGTCC	-0.159
CGATGATA	0.0426

Sequence	PBM E-score
CATAGCTC	0.111
CGAGCGTA	0.0278
ACAGTGGA	0.0503
CGTCTCAG	0.123
AAAGATCG	-0.112
CTTAATAC	0.107
ACCTCTCC	-0.178
GAAGGGAA	-0.156
AACTCGAG	0.123
GAATTTGA	-0.0204
GAGAATCC	-0.141
TAAGACTA	0.423
CGGAGAAC	-0.236
CAGGGAAG	-0.305
TACGCTCA	-0.0807
GCGTCCAA	-0.308
GTGATAAA	0.105
CTTCAATA	0.133
TAGCACAA	0.124
TGGCGAAA	-0.0782
GTACAGTA	-0.0541
AACAGTGA	-0.0624
